PMC4336329 (PLoS ONE, 2015)
The campaign covered roughly 310,000 compounds. About 14,000 (4.5%) showed an effect of 50% or more. Effects have a minus sign here. The list shows a part of the results.

molecular target: human ether-à-go-go-related gene (hERG) potassium channel (human, UniProt Q12809); test: primary screen, population patch clamp on CHO cells stably expressing hERG
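Further: peak tail current of the secondary pulse compared with the same well before compound.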

Sequence of human ether-à-go-go-related gene (hERG) potassium channel (Q12809 whole entry, looked up): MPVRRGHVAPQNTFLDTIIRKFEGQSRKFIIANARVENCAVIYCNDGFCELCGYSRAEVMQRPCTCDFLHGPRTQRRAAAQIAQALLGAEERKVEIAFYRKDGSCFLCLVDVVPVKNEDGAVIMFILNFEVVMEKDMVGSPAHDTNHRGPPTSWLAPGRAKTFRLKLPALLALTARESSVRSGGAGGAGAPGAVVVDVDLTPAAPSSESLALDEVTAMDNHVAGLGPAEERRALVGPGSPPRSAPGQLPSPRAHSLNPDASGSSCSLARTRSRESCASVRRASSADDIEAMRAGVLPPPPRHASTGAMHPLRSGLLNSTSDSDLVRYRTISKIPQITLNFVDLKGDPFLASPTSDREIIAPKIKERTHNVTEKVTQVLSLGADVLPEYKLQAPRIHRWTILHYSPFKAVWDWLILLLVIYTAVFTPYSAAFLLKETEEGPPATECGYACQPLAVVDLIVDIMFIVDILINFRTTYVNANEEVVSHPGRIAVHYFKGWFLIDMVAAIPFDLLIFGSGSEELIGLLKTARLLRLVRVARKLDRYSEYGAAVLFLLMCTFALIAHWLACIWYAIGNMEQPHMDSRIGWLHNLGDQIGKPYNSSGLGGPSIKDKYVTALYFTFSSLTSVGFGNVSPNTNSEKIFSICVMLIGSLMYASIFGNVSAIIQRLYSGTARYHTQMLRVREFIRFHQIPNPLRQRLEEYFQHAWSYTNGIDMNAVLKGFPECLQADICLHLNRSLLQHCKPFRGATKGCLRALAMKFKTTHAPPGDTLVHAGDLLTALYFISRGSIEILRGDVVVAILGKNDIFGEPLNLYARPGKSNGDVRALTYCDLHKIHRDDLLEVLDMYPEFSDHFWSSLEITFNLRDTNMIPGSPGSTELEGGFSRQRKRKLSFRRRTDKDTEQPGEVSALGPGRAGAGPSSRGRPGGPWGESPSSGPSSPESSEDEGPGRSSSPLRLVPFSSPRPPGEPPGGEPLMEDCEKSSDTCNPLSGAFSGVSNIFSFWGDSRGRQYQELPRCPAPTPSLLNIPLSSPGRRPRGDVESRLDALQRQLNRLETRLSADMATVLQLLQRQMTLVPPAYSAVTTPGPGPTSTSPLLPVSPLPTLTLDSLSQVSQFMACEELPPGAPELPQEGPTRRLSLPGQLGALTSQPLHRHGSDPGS

| Compound | hERG current change (%, negative = inhibition) at 10uM |
| --- | --- |
| [O-]/C(=C(\C(=S)NCCN1CCOCC1)[n+]1ccccc1)c1ccc(Cl)s1 | 9.04% |
| CCOC(=O)C1CCN(S(=O)(=O)c2ccc3c(c2)CC(=O)N3)CC1 | -32.5% |
| COCc1nnc(SCC(=O)NCc2ccccc2)n1-c1ccccc1 | -3.33% |
| CC(/C=C/c1ccco1)=N\NC(=O)COc1ccc(C)c(C)c1 | -15.6% |
| Cc1cc(CSc2ccccc2)ccc1NC(=O)c1cccc([N+](=O)[O-])c1 | 6.9% |
| COc1ccc(CNC(=O)c2ccc3c(=O)n(CCCN4CCCC4=O)c(=S)[nH]c3c2)cc1 | 19% |
| O=C1N(c2ccc(Cl)cc2)C(c2ccccc2)N2CCCN12 (stereo not drawn) | 26.2% |
| NS(=O)(=O)c1ccc(-n2nc(C(=O)O)cc2-c2ccc(Cl)cc2)cc1 | 12.6% |
| COc1ccc(C)cc1N(CC(=O)N/N=C/c1ccccc1C(=O)O)S(=O)(=O)c1ccccc1 | 18.2% |
| COc1ccc(N2CCN(CC(=O)NCc3ccccc3)CC2)cc1 | 0.922% |
| CC(=O)Nc1ccc(C(=O)COC(=O)CCS(=O)(=O)c2ccccc2)cc1 | 7.74% |
| Cc1ccc(C(=O)NCC(=O)OCC(=O)NCCc2ccccc2)s1 | 6.4% |
| Cc1ccccc1Cn1cccc1/C=C1/C(=N)N2C=CSC2=NC1=O | 5.35% |
| Cc1cc(NC(=O)C2CC(=O)N(c3cccc(Cl)c3)C2)no1 (stereo not drawn) | -12.1% |
| O=C(CCN1C(=O)/C(=C/c2ccc(F)cc2)SC1=S)NCCCn1ccnc1 | -63.6% |
| N#Cc1c(-n2cccc2)cccc1-n1cccc1 | -2.09% |
| CCOC(CNC(=O)C(=O)Nc1cc2c3c(c1)CCC(=O)N3CCC2)OCC | 10.7% |
| CC(C)CC(OC(=O)c1ccco1)C(=O)NC1CCCC1 (stereo not drawn) | -5.48% |
| CCCOc1ccc(CNC(=O)Cn2c(=O)oc3ccccc32)cc1 | -9.01% |
| CCOC(=O)c1c(C)[nH]c(C(=O)C(C)OC(=O)c2cccc(OCc3c(C)noc3C)c2)c1C (stereo not drawn) | 8.88% |
| COc1ccc(C)cc1S(=O)(=O)N1CCCC(C(=O)NC2CC2)C1 (stereo not drawn) | -0.49% |
| CC1(C)CCCN(Cc2c(O)ccc3c(=O)c(-c4nc5ccccc5s4)c(N)oc23)C1 | 3.68% |

| Compound | hERG current change (%, negative = inhibition) at 10uM |
| --- | --- |
| CC1CC(C)CN(C(=O)c2ccc(-c3ccc([N+](=O)[O-])cc3)o2)C1 (stereo not drawn) | -69.1% |
| O=C(N/N=C/c1cnc(N2CCCCC2)s1)c1ccc(C(F)(F)F)cc1 | 25.5% |
| O=[N+]([O-])c1cc([N+](=O)[O-])c2cc(-c3cccnc3)[nH]c2c1 | 15.2% |
| CC(C)CN(CC(C)C)C(=O)c1cc(S(=O)(=O)N2CCCCC2)c[nH]1 | 2.01% |
| NC(=O)CCCn1c(C(=O)c2ccc(Cl)cc2)c2ccc(C(F)(F)F)cc2[n+]1[O-] | -77.9% |
| COc1cccc(OCC(O)CN2CCN(c3ccc(F)cc3)CC2)c1.Cl (stereo not drawn) | -58.6% |
| CC(=O)c1cn(CC(=O)Nc2ccc(C)c(C)c2)c2ccccc12 | 20.8% |
| CCOc1ccc(CN(C)CC(=O)Nc2cccc(C)c2)cc1OC | -77% |
| O=[N+]([O-])c1ccc(/C=N/Nc2ccccn2)cc1 | 17.2% |
| CCOc1cccc2c1OC1(C)CC2NC(=O)N1c1ccc(OC)cc1 (stereo not drawn) | 11.2% |
| CCOC(=O)CSc1cc(CS(=O)(=O)c2ccccc2)nc(-c2ccccc2)n1 | 8.85% |
| COCCNC(=S)NC1CC2CCC(C1)N2Cc1ccccc1 (stereo not drawn) | 2.78% |
| Cc1ccc(CCNC(=O)Cn2cccc2)cc1 | -3.83% |
| O=C(Nc1cccc(F)c1)c1coc(=O)c(Br)c1 | 5.32% |
| O=C(Cn1cccc1)Nc1ccc(OC(F)(F)F)cc1 | -7.17% |
| COc1cc(Cl)c(NS(=O)(=O)c2c(C(=O)N3CCCC3)c(C)n(C)c2C)c(OC)c1 | 4.89% |
| C=CCOc1ccc(CNCCc2ccc(S(N)(=O)=O)cc2)cc1.Cl | -81.4% |
| O=C(COc1ccc2ccccc2c1)NNC(=O)c1ccccc1 | 20.7% |
| O=C(Nc1ccccc1N1CCOCC1)c1cccc2c(Br)cccc12 | 23.8% |
| COc1ccc2[nH]c(C(=O)NCCN3CCOCC3)cc2c1 | 0.45% |
| Cc1ccc(O)c(NC(=S)NC(=O)C(C)C)c1 | 6.82% |
| CCC(c1nnnn1Cc1ccco1)N1CCN(c2cc(Cl)ccc2C)CC1.Cl (stereo not drawn) | -8.76% |

| Compound | hERG current change (%, negative = inhibition) at 10uM |
| --- | --- |
| O=C(CCl)N1CCN(S(=O)(=O)Cc2ccccc2)CC1 | -2.13% |
| COc1ccc(NC(=O)NC(=O)c2ccccc2)cc1 | 18.6% |
| O=C(COC(=O)CNC(=O)c1ccco1)Nc1ncc(Cl)cc1Cl | 7.02% |
| Cc1cc(C(=O)NCCc2ccccc2)c2cc(F)ccc2n1 | 2.72% |
| COc1ccc(NC(=O)CN(C)C(=O)c2cccc(S(=O)(=O)N3CCN(Cc4ccccc4)CC3)c2)cc1 | -30.6% |
| Cc1cc(NS(=O)(=O)c2ccc(NC(=O)c3cccc(OC(F)F)c3)cc2)nc(C)n1 | 14.5% |
| N#C/C(=C\c1ccccc1C(F)(F)F)C(=O)Nc1ccccc1 | 3.67% |
| COc1ccc(S(=O)(=O)c2nnn(-c3ccccc3Cl)c2N)cc1 | 2.54% |
| Cc1cccc(N2CCN(C(=O)Cc3ccccc3[N+](=O)[O-])CC2)c1C | 1.57% |
| COc1ccc(NC(=O)CCCn2nc(C)c3c(C)n(-c4ccccc4)nc3c2=O)cc1 | 10.8% |
| O=C(O)c1ccc(-c2ccc(/C=c3/sc4nc5ccccc5n4c3=O)o2)cc1Cl | 20.8% |
| Cc1ccc(CSCC(=O)N/N=C/c2cccc(OC3CSC3)c2)cc1 | 11.4% |
| O=C(CCCOc1ccc(Cl)cc1Cl)NCCCn1ccnc1 | -62.5% |
| Cc1cc(=O)oc2cc(Oc3ccc(C(N)=O)cc3[N+](=O)[O-])ccc12 | -20.7% |
| O=C(CCS(=O)(=O)c1ccc(Br)cc1)Nc1ccc(Br)cc1F | 0.146% |
| O=C(Nc1ccc(N2CCCCC2)cc1)c1ccc2ccccc2n1 | 22.5% |
| COc1cccc(-c2cc(C(=O)NC3CC3)c3ccccc3n2)c1 | -51.2% |
| COc1cc(CNc2ccccc2Oc2cc(=O)n(C)c(=O)n2C)cc(OC)c1OC | 4.95% |
| O=C(Nc1nc2c(cc3c4c(cccc42)CC3)s1)c1ccccc1Cl | 14.7% |
| O=C(COc1ccc(Br)cc1)Nc1ccc2c(c1)C(=O)NC2=O | 20.5% |
| CCc1ccc(-c2nn(-c3ccccc3C)cc2C(=O)N2CCN(C3CCS(=O)(=O)C3)CC2)cc1 (stereo not drawn) | -1.98% |
| CCCCOC(=O)c1ccc(NC(=O)COC(=O)c2ccc3ncsc3c2)cc1 | -9.67% |

| Compound | hERG current change (%, negative = inhibition) at 10uM |
| --- | --- |
| O=C(CN1CCN(c2ccc(O)cc2)CC1)NC1CCCc2ccccc21 (stereo not drawn) | 11% |
| O=C1C2C3CC(C(Br)C3Br)C2C(=O)N1CC1CCCO1 (stereo not drawn) | -15.4% |
| COc1ccc(C(=O)COC(=O)c2sc(C)nc2C)cc1Cl | 9.06% |
| O=C(NCc1ccccc1)C1=C[C@@H](C2CC2)C[C@@H](OCCCCO)O1 | 6.29% |
| CCOC(=O)C1=C(C)N(C)C(=O)NC1c1ccc2c(c1)OCO2 (stereo not drawn) | 12.2% |
| COc1ccc(OC)c(CNc2nc3ccccc3n2CCN2CCCCC2)c1 | -72.4% |
| Cc1cccc(CCNC(=O)C2CCCN(S(=O)(=O)c3cccc4nsnc34)C2)c1 (stereo not drawn) | -7.04% |
| CC(=O)N1N=C(c2cccnc2)CC1c1ccccc1O (stereo not drawn) | -3.56% |
| CCOC(=O)c1ccc(NC(=S)N(CCCN2CCCC2)Cc2cccs2)cc1 | -67.5% |
| O=C(CN1CCN(c2ccc(F)cc2)CC1)c1cccs1 | 35.6% |
| CCS(=O)(=O)N1CCC(C(=O)NCc2cc(OC)ccc2OC)CC1 | -1.66% |
| COc1ccc(N=c2cc(-c3ccc(OC)cc3)oc3ccccc23)cc1 | 4.41% |
| COCCCNC(=O)CSc1nc2sc(C(=O)OC)c(C)c2c(=O)n1N | -24.6% |
| O=C(Nc1ccc(OCC(F)(F)C(F)F)cc1)c1ccncc1 | -33.9% |
| COc1cc2ccccc2cc1C(=O)N(CCN(C)C)c1nc2c(F)cccc2s1.Cl | -38.4% |
| O=C(c1cc2c(s1)-c1ccccc1OC2)N1CCC2(CC1)OCCO2 | -37.9% |
| CCOc1ccc(C(=O)Nc2ccncc2)cc1 | -7.53% |
| COc1ccc(-c2c(C(=O)O)c(-c3ccccc3)cn2C)cc1 | 28.8% |
| COCCN1C(=O)N[C@@H](CCc2ccccc2)[C@H](C(C)=O)[C@H]1C | 7.22% |
| O=C(CSCc1ccccc1Br)NNC(=S)NCc1ccco1 | 1.17% |
| O=C(Nc1ccc(Cl)c(C(F)(F)F)c1)[C@@H]1CC=C[C@@H]2CCN(C3CCCCC3)C(=O)[C@@H]21 | 8.19% |
